PubChem BioAssay AID588591 (National Center for Advancing Translational Sciences (NCATS), 2011)
Out of some 390,000 compounds screened, about 4,700 (1.2%) were called active. The shares of active, inactive and inconclusive entries below differ from those in the screen. Calls come from the whole dose curve; as a rule, active = well fitted inhibition curve with a large enough effect; inconclusive = small, poorly fitted or top-dose-only effect, or another doubt; inactive = no such curve, though single readings can be large or run the other way. Potencies beside an inconclusive call are fits to weak or partial responses and may not hold up.

target: DNA polymerase eta (Homo sapiens) (UniProt Q9Y253); experiment: qHTS for Inhibitors of Polymerase Eta; settings: recombinant Pol eta, fluorescent DNA replication assay; series mostly up to 114 µM
UniProt Q9Y253, sequence (Q9Y253 whole entry, looked up): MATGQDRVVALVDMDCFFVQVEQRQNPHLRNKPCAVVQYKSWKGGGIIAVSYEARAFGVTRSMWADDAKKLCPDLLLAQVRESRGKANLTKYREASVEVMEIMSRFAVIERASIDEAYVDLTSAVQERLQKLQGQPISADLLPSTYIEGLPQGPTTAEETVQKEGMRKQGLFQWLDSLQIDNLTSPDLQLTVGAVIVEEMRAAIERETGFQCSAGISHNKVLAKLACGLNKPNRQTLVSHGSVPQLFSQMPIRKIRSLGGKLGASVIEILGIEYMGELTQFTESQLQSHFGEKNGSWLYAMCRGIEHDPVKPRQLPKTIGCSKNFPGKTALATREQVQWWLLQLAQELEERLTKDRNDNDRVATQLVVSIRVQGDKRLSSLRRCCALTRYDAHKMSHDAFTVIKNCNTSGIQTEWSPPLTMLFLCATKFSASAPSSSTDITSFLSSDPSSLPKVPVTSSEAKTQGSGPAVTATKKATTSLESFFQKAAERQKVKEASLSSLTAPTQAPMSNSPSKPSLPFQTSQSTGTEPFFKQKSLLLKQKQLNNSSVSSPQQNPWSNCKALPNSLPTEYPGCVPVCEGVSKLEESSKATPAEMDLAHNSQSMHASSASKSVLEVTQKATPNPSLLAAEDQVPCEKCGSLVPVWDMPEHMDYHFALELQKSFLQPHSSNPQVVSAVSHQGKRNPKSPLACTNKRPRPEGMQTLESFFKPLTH
Source text: The Y-family of DNA polymerases, such as Pol eta, are specifically involved in DNA repair. Pol eta copies undamaged DNA with a lower fidelity than other DNA-directed polymerases. However, it accurately replicates UV-damaged DNA; when thymine dimers are present, this polymerase inserts the complementary nucleotides in the newly synthesized DNA, thereby bypassing the lesion and suppressing the mutagenic effect of UV-induced DNA damage. […] Thus, while pol eta's (and most likely iota's) normal function is to protect humans against the deleterious consequences of DNA damage, under certain conditions they can have deleterious effects on human health. As a consequence, we propose to utilize a high throughput replication assay to identify small molecule inhibitors of pol eta. In a collaboration between the National Institute of Child Health & Human Development (NICHD) and NIH Chemical Genomics Center, a high-throughput, fluorescent screen was developed to screen the NIH Molecular Libraries Small Molecule Repository (MLSMR). This screen is used to identify inhibitors of pol eta. NIH Chemical Genomics Center [NCGC] NIH Molecular Libraries Probe Centers Network [MLPCN] MLPCN Grant: MH090825 Assay Submitter (PI): Roger Woodgate, NICHD)
Three microliters of reagents (buffer in column 3 and 4 as negative control and 10 nM Pol eta in columns 1, 2, and 5-48) were dispensed into a 1,536-well black solid-bottomed plate. Compounds (23 nL) were transferred via Kalypsys pin tool equipped with 1536-pin array. The plates were then incubated for 15 min at room temperature, and 1 µL substrate (50 nM final concentration) was added to start the reaction and kinetically read twice at 0 min and 10 min on the Viewlux reader
Potency is the fitted concentration of half-maximal effect; tags give direction and shape of the fitted curve.

Compound | Potency
O=C(CSc1nnnn1C1CC1)N1CCN(c2ccc(O)cc2)CC1 | inconclusive: 20 µM [inhibitor, partial curve, poor fit]
O=C1CSc2ccc(S(=O)(=O)NCc3ccc(Cl)cc3)cc2N1 | inconclusive: 89.1 µM [inhibitor, single point]
CCCSc1oc(-c2ccco2)nc1S(=O)(=O)c1ccc(Br)cc1 | inconclusive: 79.4 µM [inhibitor, single point]
CC[N+](CC)(CC)CCCCOc1ccc2c(c1)C(=O)c1cc(OCCCC[N+](CC)(CC)CC)ccc1-2 | inconclusive: 56.2 µM [inhibitor, partial curve, poor fit]
COc1ccc(NC(=O)c2nn(C)c3c2CS(=O)(=O)c2ccccc2-3)cc1Cl | inactive
Cc1c(Cl)cccc1NC(=S)N1CCN(c2ccccn2)CC1 | inactive
CCOc1cc2nc(-c3ccc(OC)c(OC)c3)nc(N3CCOCC3)c2cc1OC | inconclusive: 56.2 µM [inhibitor, partial curve, poor fit]
N#Cc1nc(-c2ccc(OCc3ccc(Cl)cc3)cc2)oc1NCc1cccnc1 | inconclusive: 15.8 µM [inhibitor, partial curve, poor fit]
N#CC1=C(N)Oc2cc(O)c(C=Nc3ccccc3)cc2C1c1ccccc1 (centres undefined) | inconclusive: 39.8 µM [inhibitor, partial curve, poor fit]
CCc1ccc(CNC(=O)C2CCCN(c3nn4c(=O)cc(C)nc4s3)C2)cc1 (centres undefined) | inactive
Cc1cc(/C=C2/C(=O)NN(c3ccccc3)C2=O)c(C)n1-c1cccc(O)c1 | inconclusive: 35.5 µM [inhibitor, partial curve]
CN(C)CCOc1nc(-c2ccccc2)nc2c1oc1ccccc12 | inconclusive: 20 µM [inhibitor, partial curve]
Cc1cccc(S(=O)(=O)Nc2ccncc2)c1 | inactive
CC1CCCCC1NC(=O)COC(=O)c1c2c(nc3ccccc13)/C(=C/c1ccco1)CC2 (centres undefined) | active: 8.91 µM
Cn1c(=O)n(C)c2cc(NC(=O)COc3ccc(F)cc3)ccc21 | inconclusive: 100 µM [inhibitor, partial curve, poor fit]
Cc1cc(C)c2c(CN3CCC(C)CC3)cc(=O)oc2c1 | inconclusive: 79.4 µM [inhibitor, partial curve, poor fit]
CCN(c1ccccc1)S(=O)(=O)c1cc(C(=O)NCc2ccco2)ccc1C | active: 79.4 µM
CCOc1ccc(N=C2NC(=O)S/C2=C\c2ccc(N(C)C)cc2)cc1 | active: 79.4 µM
CC(C)CCN1C(=O)c2ccc(C(=O)Nc3cc(C(=O)O)cc(C(=O)O)c3)cc2C1=O | inactive
